In all, about 33,000 sequences were measured (“E-score (-0.5 to 0.5)”: median about -0.043, highest 2% from about 0.37 on). The list shows a part of the results.

This experiment addresses T1, Upc2 (UniProt Q12151).
T1 sequence: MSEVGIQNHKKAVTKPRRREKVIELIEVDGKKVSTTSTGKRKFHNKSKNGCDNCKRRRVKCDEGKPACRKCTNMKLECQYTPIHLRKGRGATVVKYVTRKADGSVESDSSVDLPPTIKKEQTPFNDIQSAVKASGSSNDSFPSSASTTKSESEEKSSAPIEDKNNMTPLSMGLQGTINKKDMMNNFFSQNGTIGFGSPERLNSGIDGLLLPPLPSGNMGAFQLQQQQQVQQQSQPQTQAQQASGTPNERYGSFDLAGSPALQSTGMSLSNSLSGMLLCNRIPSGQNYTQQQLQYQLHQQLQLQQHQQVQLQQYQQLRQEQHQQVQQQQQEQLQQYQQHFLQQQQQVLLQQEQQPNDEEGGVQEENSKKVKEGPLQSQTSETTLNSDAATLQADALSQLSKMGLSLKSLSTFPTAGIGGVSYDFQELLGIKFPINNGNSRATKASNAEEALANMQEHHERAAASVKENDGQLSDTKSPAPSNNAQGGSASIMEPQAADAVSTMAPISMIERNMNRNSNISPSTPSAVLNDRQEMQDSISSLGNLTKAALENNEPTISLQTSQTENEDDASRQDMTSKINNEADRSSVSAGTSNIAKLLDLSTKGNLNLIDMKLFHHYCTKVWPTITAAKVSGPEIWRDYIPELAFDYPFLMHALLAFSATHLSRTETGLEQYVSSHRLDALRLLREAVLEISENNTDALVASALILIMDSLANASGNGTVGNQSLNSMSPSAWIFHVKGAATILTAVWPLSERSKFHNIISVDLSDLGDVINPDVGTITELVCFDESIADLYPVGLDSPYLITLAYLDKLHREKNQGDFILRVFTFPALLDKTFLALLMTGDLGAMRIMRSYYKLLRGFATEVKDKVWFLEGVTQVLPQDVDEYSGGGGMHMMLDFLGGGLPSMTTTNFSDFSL
The experiment can be described thus: PBM E-score (8-mer binding enrichment) (E-score (-0.5 to 0.5)); higher = stronger / more preferred TF binding; most listed sequences are background and not binding sites. Particulars: protein concentration: 200 nM; construct: GST-full length. The gist of the method: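 Yeast transcription factors carrying a GST tag, as full-length proteins or DNA-binding domains, were produced by PURExpress in vitro transcription/translation. About 100-200 nM protein was applied to universal all-10-mer Agilent arrays, double-stranded by primer extension on fresh or once-stripped slides. Bound protein was detected with fluorescent anti-GST, and scans were normalised with masliner. The Universal PBM Analysis Suite gave each ungapped eight-base word, pooled with its reverse complement, an E-score, a modified Wilcoxon-Mann-Whitney statistic.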
Regarding AGTTACCG, the “PBM E-score” value was found to be 0.0774. For the sequence TGAACCAA, the “PBM E-score” value is -0.0118. Consider AAATCAAA, for which the “PBM E-score” value is -0.0732. ATCTATAG: the “PBM E-score” value is -0.175.

With CTGATCCA, the “PBM E-score” value is -0.238. As for ACATCAAG, the “PBM E-score” value was -0.0355.

In the case of CGCGCTCC, the “PBM E-score” value was -0.00687. As to AACTCCGG, the “PBM E-score” value was 0.08. Turning to GAGTGCTA, the “PBM E-score” value worked out at 0.0709.

Take GCGTATAA: the “PBM E-score” value was 0.444.

Consider GTAGACAA, for which the “PBM E-score” value is -0.0587. In the case of CATATTCG, the “PBM E-score” value was 0.158. In the case of GGAGAGTA it was -0.175. In the case of TCTTAGAA it was -0.0619; in that of CACTTATA, 0.183. ACTGCAAG: the “PBM E-score” value is -0.0743. As for CTGCCAGC, the “PBM E-score” value was -0.274. Take CCAGAGTA: the “PBM E-score” value was -0.164. In the case of ACAATACG it was 0.358; in that of CGACTTCA, 0.114. As to ACACACTG, the “PBM E-score” value came out at 0.175. On to ACCATCGC, for which the “PBM E-score” value was determined as 0.0261. Under ACTTTTGA stands -0.0729. Turning to CACAAGTA, the “PBM E-score” value is -0.0709.

Regarding AACCGCTC, the “PBM E-score” value was -0.0136. With AGAGATCG, the “PBM E-score” value was -0.0121. With AGAAGCAA, the “PBM E-score” value is -0.137. As for AGGATTGG, the “PBM E-score” value was -0.117.

As to CCCAACCG, the “PBM E-score” value was determined as 0.0371. In the case of ACGTGTCT, the “PBM E-score” value is 0.0353. Under CCGAGGAA stands 0.0492; under AATCCACT, -0.192; under GCCTCGCA, 0.137. Take CATGTAAG: the “PBM E-score” value was -0.0125. For CTAAGGCC, the “PBM E-score” value is -0.239. In the case of AATTATAC, the “PBM E-score” value worked out at 0.29. Consider AAAAGAGA, for which the “PBM E-score” value is 0.0789.

Turning to ACGGTAGA, the “PBM E-score” value was determined as 0.143.

With AGACAACG, the “PBM E-score” value was -0.0279.

As for CGGATGAG, the “PBM E-score” value is -0.134.

As for TCAGCTGA, the “PBM E-score” value worked out at 0.0315. In the case of ACTTTGCG it was 0.0188; in that of ATGAGCAG, -0.122; in that of ACCATCCG, 0.0546. With ATGCCGGG, the “PBM E-score” value was -0.159. Under CCTACACA stands -0.118; under ACCCATCG, 0.104; under GCGTGTTA, -0.0587.

Consider CCACTTTA, for which the “PBM E-score” value was -0.0541. Take CCAAATTA: the “PBM E-score” value came out at 0.044.

In the case of AAACCGAA, the “PBM E-score” value worked out at 0.229.

For the sequence CCCTAACG, the “PBM E-score” value was found to be 0.222.

With GTTGCTTA, the “PBM E-score” value was -0.0668. Take AACTTTGC: the “PBM E-score” value is -0.0748. Under CGAGTTTA stands 0.135; under AACATCCG, 0.0799. AAAGTGCC: the “PBM E-score” value is -0.176.

For CATTGTTC, the “PBM E-score” value is -0.0687.

For the sequence GCTATTGA, the “PBM E-score” value is -0.0594. Under AATAGCCG stands -0.199; under ACTTCATA, 0.0058; under ACAGTGCA, -0.0434.

For the sequence CACGGATA, the “PBM E-score” value is 0.108. Regarding ACACATAT, the “PBM E-score” value was -0.0137. With CACTAAGG, the “PBM E-score” value was -0.099. Under CTGAGGTA stands -0.203; under CAATGACC, -0.116. For GCGTGATA, the “PBM E-score” value is 0.0376. In the case of CACTTCAC, the “PBM E-score” value is -0.3. For the sequence AGCGCAAC, the “PBM E-score” value was found to be 0.149. For CGGATTGC, the “PBM E-score” value came to 0.0416.

CTTTGAAC: the “PBM E-score” value amounted to 0.0876.

As for AAGTCAAG, the “PBM E-score” value was -0.204.

As to ATGTTCTG, the “PBM E-score” value is -0.036. On to CCATTCCG, for which the “PBM E-score” value is -0.109. With TCAAACAA, the “PBM E-score” value is -0.0805.

Take GGACCTCC: the “PBM E-score” value is -0.217.

In the case of ATTCTCCC, the “PBM E-score” value is -0.293. Turning to CAGTCTGA, the “PBM E-score” value is -0.101. CGGTCGAA: the “PBM E-score” value is -0.00348. Turning to GCATTAGC, the “PBM E-score” value was -0.157.

Regarding ATTAAGAA, the “PBM E-score” value was determined as 0.188. Turning to GGGTACCA, the “PBM E-score” value was -0.275. ATCGCCTA: the “PBM E-score” value was -0.0815. ACAGAGTA: the “PBM E-score” value came out at 0.0516.

As for GAGAAATA, the “PBM E-score” value came to 0.0258.

These data come from the supplement of paper PMC3334620.
